{
  "source": "PubChem BioAssay (NCATS)",
  "note": "“And” between values parts separate entries of the source, which are not always exact repeats. Equal values may be shown once. The inconclusive results got no clear call from the source; some entries with a clear call stand among them for comparison. A call without a number means that no potency is given here. A potency beside an inconclusive call is a rough fit, not a confirmed value. The source made the active and inactive calls. Calls come from the whole dose curve; as a rule, active = well fitted inhibition curve with a large enough effect; inconclusive = small, poorly fitted or top-dose-only effect; inactive = flat fitted curve, though single readings scatter. Potency is the fitted concentration of half-maximal effect; tags give direction and shape of the fitted curve.",
  "data": [
    {"molecular_target": "Aldehyde dehydrogenase, mitochondrial (Homo sapiens) (UniProt P05091)", "assay": "qHTS for Inhibitors of the Aldehyde Dehydrogenase Family (ALDH2) Primary screen (AID 2061308); note: nearly all actives have a fitted effect of over 55% in size", "conditions": "ALDH2 enzyme inhibition qHTS, 1536-well; series mostly up to 56 µM", "values": [
      {"smiles": "COc1ccc(C2c3c(ncn(CCN4CCOCC4)c3=N)Oc3ccc4ccccc4c32)cc1", "note": "(centres undefined)", "Potency": "inactive"},
      {"smiles": "c1cncc(-c2ccc3ncnc(NCc4ccc5c(c4)OCO5)c3c2)c1", "Potency": "inconclusive: 0.251 µM [inhibitor, full curve, poor fit]"},
      {"smiles": "CCCn1c(-c2ccc(F)cc2)nc2c(NCCCCN3CCCC3)nc(C)nc21", "Potency": "inactive"},
      {"smiles": "CN(C)c1ccccc1-c1csc(N2CCC(C(N)=O)CC2)n1", "Potency": "inactive"},
      {"smiles": "Nc1nc(O)c(C2=C3C(=Nc4ccccc43)C(=O)NCC2)[nH]1", "Potency": "inactive"},
      {"smiles": "CCOC(=O)c1sc(NC(=O)[C@H](C(C)C)n2c(=O)[nH]c3ccccc3c2=O)nc1C", "Potency": "inactive"},
      {"smiles": "COc1ccc(CN2C(=O)C(=O)c3cc(S(=O)(=O)N4CCC[C@H]4COc4cccnc4)ccc32)cc1", "Potency": "inactive"},
      {"smiles": "Cc1ccc(C)c(OCCn2cc(C(=O)O)c3ccccc32)c1", "Potency": "inactive"},
      {"smiles": "Fc1cccc(Nc2nc(-c3ccncc3)nc3ccccc23)c1", "Potency": "inactive"},
      {"smiles": "COc1ccc(-n2cnc3c(c2=N)C(c2cccc(OC)c2)c2c(ccc4ccccc24)O3)cc1", "note": "(centres undefined)", "Potency": "inactive"},
      {"smiles": "COc1ccc(C2c3ccc(OCc4ccccc4)cc3Oc3ncn(CCN4CCOCC4)c(=N)c32)cc1OC", "note": "(centres undefined)", "Potency": "inconclusive: 14.1 µM [inhibitor, partial curve]"},
      {"smiles": "COc1cc(CO)cc(OC)c1O[C@@H]1O[C@H](CO)[C@@H](O)[C@H](O)[C@H]1O", "Potency": "inactive"},
      {"smiles": "O=C(Nc1ccc2ccccc2c1)Nc1nnc(-c2ccccn2)s1", "Potency": "inconclusive: 12.6 µM [inhibitor, partial curve]"},
      {"smiles": "O=C(O)c1cc2cccc([N+](=O)[O-])c2[nH]1", "Potency": "inconclusive: 31.6 µM [inhibitor, single point]"},
      {"smiles": "Cc1ccc(-c2cc(C(=O)Nc3ccc(C(=O)O)cc3)c3ccccc3n2)cc1C", "Potency": "inactive"},
      {"smiles": "CN(C)c1cccc(-c2nnc(N3CCC(C(N)=O)CC3)s2)c1", "Potency": "inconclusive: 39.8 µM [inhibitor, partial curve, poor fit]"},
      {"smiles": "COCCNc1ccc(NC(=O)c2cccs2)cn1", "Potency": "inconclusive: 12.6 µM [inhibitor, partial curve]"},
      {"smiles": "Cc1cc(NS(=O)(=O)c2ccc(NC(=O)c3ccc(Cl)c(Cl)c3)cc2)no1", "Potency": "inactive"},
      {"smiles": "Cc1nc(CSc2ncnc3ccc(-c4ccc5c(c4)OCO5)cc23)cs1", "Potency": "inactive"},
      {"smiles": "O=C1c2ccccc2C(=O)N1c1ccc2ccccc2n1", "Potency": "inconclusive: 10 µM [inhibitor, partial curve, poor fit]"},
      {"smiles": "CCCCS(=O)(=O)NC(Cc1ccc(OCCCCC2CCNCC2)cc1)C(=O)O", "note": "(centres undefined)", "Potency": "inactive"},
      {"smiles": "CN(C)c1ccc2c(=O)n3nc(Nc4ccc5c(c4)CCC5)sc3nc2c1", "Potency": "inconclusive: 7.94 µM [inhibitor, partial curve]"},
      {"smiles": "Cn1c(=O)c2c(nc(OC3CCN(C(=O)C4CC4)CC3)n2CCC(C)(C)C)n(C)c1=O", "Potency": "inactive"},
      {"smiles": "CC(=O)NC(c1ccco1)c1cc(Cl)c2ccc(N(C)C)nc2c1O", "note": "(centres undefined)", "Potency": "inconclusive: 17.8 µM [inhibitor, partial curve]"},
      {"smiles": "O=C(CSc1nc2c(c(=O)n1-c1ccccc1)SCC2)Nc1ccc(-c2ccccc2)cn1", "Potency": "inactive"},
      {"smiles": "CC(=O)O[C@@H]1[C@H](O[C@@H]2O[C@@H](CO)[C@H](O)[C@H]2O)[C@@H](O[C@@H]2O[C@@H](C)[C@H](O[C@@H]3OC[C@@H](O)[C@H](O)[C@H]3O)[C@@H](O)[C@H]2O)[C@H](OC(=O)[C@]23CCC(C)(C)C[C@H]2C2=CCC4[C@@]5(C)CC[C@H](O[C@@H]6O[C@H](C(=O)O)[C@@H](O)[C@H](O)[C@H]6O[C@@H]6O[C@H](CO)[C@H](O)[C@H](O)[C@H]6O)[C@@](C)(C=O)C5CC[C@@]4(C)[C@]2(C)CC3)O[C@@H]1C", "note": "(some centres undefined)", "activity change, negative = inhibition": "inactive: 4.21% [at 11.2 µM]"},
      {"smiles": "Cc1ccc(CNc2ncnc3cc(-c4ccc5c(c4)OCO5)ccc23)o1", "Potency": "inconclusive: 14.1 µM [inhibitor, partial curve, poor fit]"},
      {"smiles": "C/C(=C\\Cc1c(O)c(Cl)c(C)c(C=O)c1O)CC/C=C(\\C)[C@H]1CC(=O)C(C)(C)O1", "Potency": "inconclusive: 0.178 µM [inhibitor, full curve, poor fit]"},
      {"smiles": "Cn1nnnc1Sc1ncnc2scc(-c3ccccc3Br)c12", "Potency": "inactive"},
      {"smiles": "COc1ccc(C(=O)OCC#CCSc2nnc(-c3cccc4ccccc34)o2)cc1", "Potency": "inactive"},
      {"smiles": "Cc1c(C(=O)Nc2ccc(N3C[C@@H](C)O[C@@H](C)C3)nc2)cccc1-c1ccc(OC(F)(F)F)cc1", "Potency": "inactive"},
      {"smiles": "Cc1ccsc1CN(C)c1ncnc2ccc(-c3ccc([C@@H](C)O)o3)cc12", "Potency": "inconclusive: 141 nM [inhibitor, full curve, poor fit] and inconclusive: 8.91 µM [inhibitor, full curve, poor fit]"},
      {"smiles": "COc1cc(CCc2ccc(OCC=C(C)C)cc2)cc(OC)c1OC", "Potency": "inconclusive: 14.1 µM [inhibitor, single point]"},
      {"smiles": "O=[S+]([O-])(Nc1ccc(-c2ccccc2)cc1)c1ccc(NCc2ccc(Cl)cc2O)cc1", "Potency": "inactive"},
      {"smiles": "Cc1ccc(CN(C)c2nc(-c3ccccc3C(F)(F)F)nc3ccccc23)cc1", "Potency": "inconclusive: 20 µM [inhibitor, partial curve, poor fit]"},
      {"smiles": "O=C1CCc2cc(S(=O)(=O)Nc3cccc(Cl)c3)ccc2N1", "Potency": "inactive"},
      {"smiles": "Cc1cc(C)n2ncc(C(=O)Nc3ccccc3)c2n1", "Potency": "inconclusive: 11.2 µM [inhibitor, partial curve, poor fit]"},
      {"smiles": "Cc1c(P(=S)(c2ccccc2)c2ccccc2)c2ccccc2n1C/C=C/c1ccccc1", "Potency": "inconclusive: 31.6 µM [inhibitor, partial curve, poor fit]"},
      {"smiles": "Cc1nc(N2CCOCC2)c2nc(-c3ccccc3)n(CCCN3CCOCC3)c2n1", "Potency": "inactive"}
    ]}
  ]
}
